In all, about 44,000 compounds went through this assay and about 340 (0.77%) were called active. Inconclusive results (about 5%) are left out. The call rests on the fitted dose curve; in most records, active means well fitted inhibition curve with a large enough effect; inconclusive means small, poorly fitted or top-dose-only effect; inactive means flat fitted curve, though single readings scatter. The list shows a part of the results.
Experiment: Acumen qHTS Assay for Inhibitors of the mTORC1 Signaling Pathway in MEF (Tsc2-/-, p53-/-) Cells: Sytravon; further: nearly all actives have a fitted effect of over 50% in size
Settings: phospho-rpS6 immunofluorescence/PI, 24 h; series mostly up to 38.3 µM; activity change, negative = inhibition: at the top concentration
From the text: NIH Molecular Libraries Probe Production Centers Network [MLPCN] NIH Chemical Genomics Center [NCGC] MLPCN Grant: NS059428-01 Assay Submitter (PI): Blenis, John; Hoffman, Greg; Harvard University NCGC Assay Overview: The mammalian target of rapamycin (mTOR) is an intracellular serine/threonine kinase Aberrant regulation of mTOR signaling plays a causative role in a number of human diseases, including cancer, benign tumors such as lymphangioleiomyomatosis (LAM) and Tuberous Sclerosis Complex (TSC), and metabolic diseases such as diabetes and obesity. This project aims to identify inhibitors of ribosomal protein S6 (rpS6) phosphorylation. The phosphorylation of rpS6 is a key event downstream of mTOR activation. The assay uses a phospho-specific antibody of phospho-rpS6 to detect inhibitors of mTOR activation. Mutations in the Tsc1 and Tsc2 genes are the underlying genetic lesions responsible for TSC, causing constitutive activation of the mTORC1 pathway and leading to profound effects on cell metabolism. Aberrant metabolism in cancer has recently received significant attention as a target to develop therapeutic agents in the treatment of cancer.1 As Tsc2-/- cells have lost the ability to respond to energy and growth factor deprivation, these cells are unable to properly down regulate cellular biosynthetic processes in response to metabolic stress, and are thus extremely sensitive to glucose deprivation-induced death.2 A central goal of this project is to explore the unique cell survival and metabolic properties of cells with Tsc1 or Tsc2 by screening for compounds that selectively target the Tsc2-/- MEFs by screening both Tsc2-/- and WT MEF cell lines. We hope to better understand these aspects of TSC physiology in order to exploit them for therapeutic benefit.
NCGC Acumen Assay Protocol Summary: For quantitative high throughput analysis of mTORC1 signaling, we developed a cell-based assay for immuno-fluorescence based detection of rpS6 phosphorylation on the Acumen Explorer that will be used a platform for the primary small molecule screen. Mouse embryonic fibroblasts (MEFs) are cultured in 1536-well plates using DMEM + 10% FBS. Twenty-four hrs after plating, test compounds (solubilized in DMSO) are delivered and incubated with the cells for 24 hrs at 37 degree Celsius. Following the incubation, media with compound is aspirated and the cells are fixed in 4% paraformaldehyde (PFA) containing PBS + 0.2% TX-100. Next, PFA is aspirated, cells are washed two times with PBS plus 0.2% TX-100 and the cells are blocked for 1 hr at room temperature (blocking buffer: LiCOR Blocking Buffer plus 0.2% TX-100). […] Cells are washed two times with PBS plus 0.2% TX-100, and stained with 10 uM propidium iodide (PI) for 20-25 minutes for cell number measurement (1:500 dilution of Hoescht staining is also added for IN Cell imaging). The plates are scanned on the Acumen Explorer laser scanning instrument (TTP Labtech) using the 488nm laser for simultaneous excitation of the Alexa-488 and PI. […] The normalized phospho-S6 staining is calculated as the ratio of the integrated Alexa 488 intensity divided by the integrated PI intensity for the single concentration rapamycin control (7.5 nM) and DMSO columns. […] Inhibition of the pathway is defined based on the normalized phospho-S6 intensity in rapamycin treated cells. Active cells are defined as those with a normalized phospho-S6 staining above this threshold, and each treatment is reported as the % positive cells in the well, where thresholds are defined by selecting wells with the highest and lowest signal and differentiating between the % non-active and % active populations. In addition to the pathway specific phospho-S6 endpoint, the number of PI stained cells from the Acumen is recorded as a measure of cell viability. The primary screen was performed with a MEF cell line in a defined genetic background, Tsc2-/-, p53-/- cell line stably transfected with an empty vector control (Tsc2-/- MEF).

| Structure (SMILES) | activity change, negative = inhibition |
| --- | --- |
| CC(=O)NCCNc1nc2c(-c3ccc(C)cc3)nnn2c2ccccc12 | inactive: -20.6% |
| CCCN(CCC)C(=O)Cn1c(=O)n(-c2ccc(C)cc2)c(=O)c2ccc(C(=O)NCc3ccccc3Cl)cc21 | inactive: -3.95% |
| CNC(=O)C1CCN(Cc2cc3ccccc3n2Cc2ccccc2C)CC1 | inactive: -13.2% |
| CCCCNC(=O)Cn1c(=O)cc(C)c2c(C)nn(-c3ccc(CC)cc3)c21 | inactive: -9.68% |
| CCC1CN(C(=O)N2CCC(C(=O)NCCc3ccc(C)cc3)CC2)c2ccccc2O1 (centres undefined) | inactive: 10.1% |
| O=C(CCc1nnc2n(Cc3ccccc3Cl)c(=O)c3ccccc3n12)Nc1ccc(F)c(F)c1 | inactive: -1.58% |
| Cc1ccc(-n2nc(CO)c(C(=O)NCC(c3ccccc3)c3ccccc3)n2)cc1 | inactive: 1.45% |
| O=C(NCc1cccc(Br)c1)C1CCN(C(=O)c2sccc2-n2cccc2)CC1 | inactive: -1.54% |
| Cc1oc(-c2ccccc2)nc1CSc1nnc(C)n2c1cc1sccc12 | inactive: 2.37% |
| CCOCCCNC(=O)CCC(=O)NNc1nc2ccccc2c2nc(-c3ccccc3)nn12 | inactive: 0.234% |
| CCCOc1ccc(C(=O)Nc2ccc(NC(=O)c3cccc(Cl)c3)cc2)cc1 | inactive: 4.1% |
| Cc1ccc(C)c(N2CCN(C(=O)c3cc(S(=O)(=O)N4CCCC4)c[nH]3)CC2)c1 | inactive: -1.81% |
| COc1cccc(Nc2cc(-c3ccccc3)nc(C)n2)c1 | inactive: 0% |
| COc1ccc(NC(=O)c2c(NCc3cccc(OC)c3)sc3c2CCC3)cc1 | inactive: 0.56% |
| COc1ccc(C)c2sc(N(Cc3cccnc3)C(=O)COc3ccccc3)nc12 | inactive: -0.598% |
| Cc1cccc(Nc2ncnc3c2cnn3C)c1C | inactive: 5.4% |
| COc1cc(OC)cc(C(=O)NCc2ccc3c(c2)CCN3C(=O)c2ccccc2)c1 | inactive: -5.29% |
| Cc1ccc(-n2ncc3c(N4CCN(C)CC4)ncnc32)cc1 | inactive: -0.418% |
| Cc1ccc2c(c1)N(C(=O)N1CCC(C(=O)NC3CCCCCC3)CC1)CCO2 | inactive: -7.11% |
| CN(C)c1ccc(-c2nc(-c3ccncc3)no2)cc1[N+](=O)[O-] | inactive: -0.848% |
| COc1ccc(CC(=O)N2CC(=O)Nc3ccc(Br)cc3C2c2ccc(F)cc2)cc1OC (centres undefined) | inactive: 7.04% |
| COc1cc2nc(NCc3ccccc3Cl)n3nc(-c4cccnc4)nc3c2cc1OC | inactive: 0.789% |
| COC(=O)c1ccc(NC(=O)CC2C(=O)N(c3ccccc3)C(=O)N2C2CCCC2)cc1 (centres undefined) | inactive: -0.238% |
| CCOc1ccc(Nc2c(S(=O)(=O)c3ccc(C)cc3)cnc3ccc(OC)cc23)cc1 | inactive: -7.58% |
| COc1cc(C(=O)N2CCC(c3ccncc3)CC2)cc(OC)c1OC | inactive: -4.26% |

| Structure (SMILES) | activity change, negative = inhibition |
| --- | --- |
| COc1ccc(Cn2c(C(=O)O)c(CNC3CCC(C)CC3)c3ccc(C)cc32)cc1 (centres undefined) | inactive: 1.94% |
| COc1cccc(CNC(=O)c2cc(-c3cccs3)nc3ccccc23)c1 | inactive: -0.175% |
| COCCCNC(=O)CSc1nc2nc(C)c(Cc3ccccc3Cl)c(C)n2n1 | inactive: -15.9% |
| CC(=O)N1CCCc2cc(S(=O)(=O)NCc3ccc(N(C)C)cc3)ccc21 | inactive: -9.83% |
| COc1cccc(C(=O)Nc2ccc3nc(SCc4ccc(C)cc4)sc3c2)c1 | inactive: -29.5% |
| Cn1nc(-c2ccccc2)c(-c2ccccc2)c(C(=O)Nc2ccc(S(N)(=O)=O)cc2)c1=O | inactive: 1.74% |
| Cc1cccc(-n2c(SCC(=O)Nc3ccccc3Cl)nc3n[nH]c(C)c3c2=N)c1 | inactive: 4.15% |
| CCOc1ccc(NC(=O)CN2C(=O)CCSc3ccc(S(=O)(=O)N4CCCC4)cc32)cc1 | inactive: -1.54% |
| O=C(NCC(c1cccnc1)N1CCOCC1)C(=O)Nc1cccc(Cl)c1 (centres undefined) | inactive: 0.756% |
| CSc1ccc(CCNC(=O)c2sc3ncccc3c2-n2cccc2)cc1 | inactive: -2.7% |
| Cc1ccc(C)c(N2CCN(C(=O)C(C)n3nc(C)c4sc5ccccc5c4c3=O)CC2)c1 (centres undefined) | inactive: 1.85% |
| COc1cccc(-n2cc(C(=O)NCCc3cccc(C)c3)c3ccccc3c2=O)c1 | inactive: 5.3% |
| COC(=O)c1ccc(NC(=O)N2CCc3c([nH]c4ccccc34)C2c2ccc(C)cc2)cc1 (centres undefined) | inactive: -9.78% |
| O=C(NCc1ccccc1Cl)C(=O)NCC(c1ccco1)S(=O)(=O)c1cccs1 (centres undefined) | inactive: -0.661% |
| COc1ccccc1CNC(=O)C1CCN(c2nn3c(=O)cc(C)nc3s2)CC1 | inactive: 0.0309% |
| CCC1CCCCN1CCCNC(=O)c1cc2c(Cl)nc3ccc(C)cc3c2s1 (centres undefined) | inactive: -12.1% |
| Cc1c2cnn(CC(=O)NCCc3ccccc3)c(=O)c2c(C)n1Cc1ccccc1Cl | inactive: -0.53% |
| COc1ccc(Cn2c(=O)c3oc4ccccc4c3n(CC(=O)Nc3cc(C)cc(C)c3)c2=O)cc1 | inactive: -2.97% |
| CCOc1ccc(NC(=O)CSc2nc3nc(C)c(Cc4ccccc4)c(C)n3n2)cc1 | inactive: 10.2% |
| COc1cc(C(=O)NCC(c2ccc(N(C)C)cc2)N2CCCC2)cc(OC)c1OC (centres undefined) | inactive: 0% |
| COc1ccc(/C=C(\C#N)c2nc(-c3ccc(Cl)c(Cl)c3)cs2)cc1OC | inactive: -5.63% |
| CCc1ccc(NC(=O)CSc2nc(=O)n(Cc3cccnc3)c3c2CCC3)cc1 | inactive: -1.05% |
| CC(=O)c1ccc(NC(=O)CN2C(=O)c3cccnc3Sc3ccccc32)cc1 | inactive: -10% |
| O=C(COc1ccccc1F)NC1CC(=O)N(c2ccc3c(c2)OCCO3)C1 (centres undefined) | inactive: 0.415% |
